We go through 84 variants from the RNAGym collection of RNA variant scans (doi:10.1093/nar/gkz1192).

Sequences and labels used below:
B1: CPEB3 Ribozyme (parent)
chain: UAACAGGGGGCCACAGCAGAAGCGUUCACGUCGCAGCCCCUGUCAGAUUCUGGUGAAUCUGCGAAUUCUGCUGUAUAUCUC

Read counts are not given, so values of variants with three or more changes are uncertain.

The data set covers variants of B1. Briefly: self-cleavage, relative activity (ratio to wild type); higher = more cleavage; in vitro, sequencing. The procedure, abridged:
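Relative activity compares each variant's cleaved/total read fraction with that of the unmutated ribozyme. To get these fractions, barcoded CPEB3 ribozyme libraries from rounds of error-prone PCR were transcribed with T7 RNA polymerase for 5 hours at 37°C and then given 15 min of DNase I treatment before EDTA was added. The RNAs were reverse transcribed with template switching and sequenced on Illumina, and DNA sequencing linked barcodes to variants. A minimum of 5 reads applied, and three batches were averaged.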
Regarding U25C C27A U31C C32U C44G, the self-cleavage was determined as 0.13.
The figure for U25C C34U U41C U67C U69A is 0.05; for U25C A45U U66C it is 0.14.
Under U25C C27U U76A U78A stands 0.27; under U25C A28G U41C U69C, 0.12; under U25A A45U U58C U69C, 0.11.
Turning to U25A U58C U67A, the self-cleavage amounted to 0.15.
The figure for U25C A47G U48C U67C G70A U78C is 0.12; for U25C A35G U51A it is 0.38; for U25A A35C U41C U60A U72C it is 0.12.
Under U25C A28G A45G C68U stands 0.27; under U25C A47U A56G A64U, 0.16; under U25C A28G U48C A56U U72A A75G, 0.07.
Under U25C A28G U41G U51G U76A stands 0.07.
As for U25C A64G C71G, the self-cleavage was 0.11.
The figure for U25A U48G U54G U80G is 0.04; for U25A U31C U54C U80A it is 0.09; for U25C C39A U43C U54C it is 0.14.
The figure for U25A G30C U41C A47U U67A is 0.05; for U25C A28C U41C U72A C79U it is 0.21; for U25A A75C U78C it is 0.11.
U25C A28U C40U A65G U80C: the self-cleavage turned out to be 0.18.
For the variant U25C A47G G52A, the self-cleavage was found to be 0.11.
Consider U25A A45G A57U A65G U78A, for which the self-cleavage was found to be 0.06.
The figure for U25A A28U U41A U48A is 0.13.
Under U25A A28G A35G U60A U69A U78C stands 0.04.
The figure for U25A U69A U78C is 0.39; for U25C A65G U72C A75G it is 0.09; for U25C A65G C68G it is 0.11.
For the variant U25C A35G U67A U78C, the self-cleavage came out at 0.11.
Under U25C A35G A45U A47U U58C stands 0.06; under U25A U51A U74C U80A, 0.09.
As for U25C A35U U41C, the self-cleavage is 0.12.
With U25A U72C U74C, the self-cleavage turned out to be 0.21.
On to U25A A28U G33A G36U, for which the self-cleavage turned out to be 0.13.
Under U25A G53A U69A stands 0.23; under U25A C27U A45U U49A, 0.1.
As for U25A A64G U78A, the self-cleavage stood at 0.17.
For U25C A45G U78A, the self-cleavage came out at 0.19.
The figure for U25C A45C G73C is 0.06.
With U25C A35G U43C G52A, the self-cleavage is 0.18.
The figure for U25C A45G U49A is 0.19; for U25A U26C A57G U69C it is 0.08.
Under U25C C39U A45U U74A stands 0.06; under U25C C27A C32A, 0.1; under U25C C29U U69A, 0.2.
Consider U25C C29U U31C U49C U58C U72C, for which the self-cleavage was 0.09.
The figure for U25C A35G A56U is 0.13; for U25A A35G A56G U60A A65G U78C it is 0.04.
The figure for U25C A35G U49A A64G G70C is 0.05; for U25C C37U A56G A65G C79U it is 0.19.
Under U25C C32U A35U U76C stands 0.13; under U25C C38U U41C U49C U72C, 0.11; under U25A A45G U58G C62U, 0.05.
For G24U U49C A65U, the self-cleavage is 0.07.
The figure for U25A U60C C71A U80A is 0.12; for U25C A45G A47U U72C it is 0.07.
For U25A G46U U66C, the self-cleavage is 0.12.
For U25A G46C U69C U80A, the self-cleavage was found to be 0.08.
As for U25C A45U U69C A75G, the self-cleavage came to 0.07.
For the variant U25A A75U U78C, the self-cleavage amounted to 0.23.
Under U25A G36A U72C stands 0.15; under U25C A28G U72A, 0.14.
On to U25A C50G U51C G53C A57G, for which the self-cleavage was found to be 0.04.
Under U25A U41A A45U stands 0.14.
As to U25A A47G U54C A77G, the self-cleavage came to 0.1.
For the variant U25A A35G A64C U72C, the self-cleavage was found to be 0.11.
Under U25A U26G U41A A47G C50U C71U stands 0.05; under U25C A56U U76G, 0.32.
Under U25C C37G U67C stands 0.51.
The figure for U25C C34G U78A is 0.05.
As to U25A A35U U66C U72C G73A, the self-cleavage was 0.09.
The figure for U25A U51A U74C is 0.28; for U25C A35U C44U U74A it is 0.36; for U25C A47U A56G U66C U69C A75U it is 0.05.
The figure for U25A A75G U80C is 0.18; for U25A U31C U41A U80C it is 0.3.
The figure for U25A A75G U76C is 0.6; for U25A A35G U48C it is 0.39; for U25A U26C U41C G73A it is 0.09.
U25A U41G U51C: the self-cleavage amounted to 0.07.
Under U25A U43C A45U U67A U80C stands 0.26; under U25C A45G A47C, 0.44; under U25C C27A G52A, 0.47.
